Measured values: article PMC4336329 (PLoS ONE, 2015)
Among all 310,000 compounds or so, about 2,200 (0.71%) showed an effect of 50% or more. Effects have a minus sign here. The list shows a part of the results.

These compounds were tested against human ether-à-go-go-related gene (hERG) potassium channel (human, UniProt Q12809) (assay: primary screen, population patch clamp on CHO cells stably expressing hERG).
Chain of human ether-à-go-go-related gene (hERG) potassium channel (Q12809 whole entry, looked up): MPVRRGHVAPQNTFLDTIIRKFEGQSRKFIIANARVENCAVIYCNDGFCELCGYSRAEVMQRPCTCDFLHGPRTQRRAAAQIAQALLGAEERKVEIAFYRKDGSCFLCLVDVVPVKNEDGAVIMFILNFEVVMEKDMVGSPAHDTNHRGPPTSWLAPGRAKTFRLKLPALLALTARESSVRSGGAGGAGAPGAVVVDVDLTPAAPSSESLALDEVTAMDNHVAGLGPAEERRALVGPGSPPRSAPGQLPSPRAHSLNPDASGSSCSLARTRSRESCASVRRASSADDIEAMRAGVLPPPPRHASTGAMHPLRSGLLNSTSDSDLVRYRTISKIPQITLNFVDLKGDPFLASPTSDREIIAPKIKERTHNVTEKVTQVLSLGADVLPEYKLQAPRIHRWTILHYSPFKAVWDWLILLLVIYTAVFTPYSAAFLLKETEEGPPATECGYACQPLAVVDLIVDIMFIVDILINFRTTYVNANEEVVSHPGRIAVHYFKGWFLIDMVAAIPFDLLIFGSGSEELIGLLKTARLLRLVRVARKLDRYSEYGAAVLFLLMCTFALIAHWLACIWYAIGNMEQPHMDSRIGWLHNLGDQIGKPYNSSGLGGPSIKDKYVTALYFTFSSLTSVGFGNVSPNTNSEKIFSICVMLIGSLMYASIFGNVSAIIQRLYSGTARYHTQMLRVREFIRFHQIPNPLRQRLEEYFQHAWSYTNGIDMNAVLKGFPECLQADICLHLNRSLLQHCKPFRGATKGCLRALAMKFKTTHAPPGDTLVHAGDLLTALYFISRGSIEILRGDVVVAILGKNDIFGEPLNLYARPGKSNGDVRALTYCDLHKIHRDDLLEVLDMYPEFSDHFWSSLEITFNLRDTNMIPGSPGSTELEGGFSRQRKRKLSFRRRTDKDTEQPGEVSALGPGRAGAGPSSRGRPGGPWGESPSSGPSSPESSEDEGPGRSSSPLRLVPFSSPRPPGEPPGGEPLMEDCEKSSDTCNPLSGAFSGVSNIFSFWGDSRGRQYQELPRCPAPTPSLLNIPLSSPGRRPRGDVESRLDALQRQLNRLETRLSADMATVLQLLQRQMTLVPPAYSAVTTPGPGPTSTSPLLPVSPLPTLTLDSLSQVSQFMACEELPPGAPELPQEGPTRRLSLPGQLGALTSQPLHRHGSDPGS

| SMILES | hERG current change (%, negative = inhibition) at 1uM [%] |
| --- | --- |
| CCOc1cc(CNC(C)C)c(Cl)cc1OCC(=O)NCCc1ccccc1 | 0.929 |
| CCCC(=O)NC(c1ccc(OC)c(OC)c1)c1cc(Cl)c2cccnc2c1O (centres unmarked) | 11.2 |
| Cc1cc(/C=C2/NC(=O)N(c3ccccc3)C2=O)c(C)n1C(C)C | 21.3 |
| COc1ccccc1-c1nnc(SCc2ccccn2)n1C | -2.55 |
| CCOC(=O)N1CCN(C(=O)Cc2ccccc2OC)CC1 | 18.2 |
| CC(C)OC(=O)/C(=C/c1ccc(Br)cc1)NC(=O)c1ccco1 | -1.31 |
| CN(C)c1ccc(/C=N/N(CCC#N)C2=NS(=O)(=O)c3ccccc32)cc1 | 12.3 |
| O=c1c2ccccc2c(/C=N/n2cnnc2)c(O)n1-c1ccccc1 | 1.77 |
| CC1CCC2(CC1)NC(=O)N(Cc1nnc(-c3cccs3)o1)C2=O (centres unmarked) | 5.1 |
| O=C(Nc1cccnc1)c1cnc2ccccc2n1 | 13.9 |
| CCNC(=O)NC1c2ccccc2CSc2ccccc21.O (centres unmarked) | 14.8 |
| CCCNC(=O)c1onc(CSc2ccc(Cl)cc2)c1C(=O)NCCC(C)C | 11.5 |
| Cc1ccc(Oc2ncccc2COC(=O)Nc2ccccc2C)cc1 | 15.8 |
| CC(C)(C)NCc1cc(Br)ccc1OCc1cccs1.Cl | -10.1 |
| C=CCn1c(SCC(=O)NCC(=O)OCC)nnc1-c1cccc(OC)c1 | 7.05 |
| Cc1nn2c(-c3cccc(NC(=O)CN4CCOCC4)c3)nnc2c2ccccc12 | 6.26 |
| CC(=O)c1ccc(NC(=O)C(Cc2ccccc2)n2cccc2)cc1 (centres unmarked) | 5.8 |
| O=C1NC(=Nc2ccc(Cl)cc2)SC1Cc1cccc(Cl)c1Cl (centres unmarked) | 0.88 |
| O=c1nc2n(c3c4c(sc13)CCC4)CCC2 | 13 |
| COC(=O)C1=C(c2ccc(F)cc2OCc2ccccc2)C[C@@H]2CC[C@H]1N2C(=O)NCc1ccccc1Cl | 10.7 |
| C/C(=N/OCC(=O)Nc1ccc(C)cc1C)c1cccs1 | -2.05 |
| O=C(CCC(=O)Nc1ccc(F)cc1)N/N=C/c1ccccc1 | 10.6 |
| CC(Sc1ccccn1)C(=O)Nc1ccccc1 (centres unmarked) | 4.61 |

| SMILES | hERG current change (%, negative = inhibition) at 1uM [%] |
| --- | --- |
| CCOC(=O)C(O)(c1ccc(NC(=O)NC)cc1)C(F)(F)F (centres unmarked) | 10.1 |
| COc1ccc(C(F)(F)F)cc1N/C=C/c1nnnn1-c1ccc2ccccc2c1 | 6.79 |
| CCCCC(NS(=O)(=O)c1ccc(OC)cc1)C(=O)O (centres unmarked) | 4.31 |
| CC1CCCC(C)N1CCCNC(=O)c1ccc2nc(N3CCOCC3)sc2c1 (centres unmarked) | 6.49 |
| O=C(NNC(=O)c1csc(-c2cccnc2)n1)Nc1ccc(Cl)cc1 | 13.1 |
| O=C(Nc1ccccc1F)c1ccc(-c2cccc([N+](=O)[O-])c2)o1 | 13.7 |
| Cc1ccc(S/C(=N\S(=O)(=O)c2ccc(Cl)cc2)c2ccccc2)cc1 | 0.488 |
| CCn1c(-c2cccc(Cl)c2)n[nH]c1=S | 0.948 |
| COc1ccc(CN2CCNC(=O)C2CC(=O)NC2CCCC2)c(C)c1C (centres unmarked) | 10.2 |
| CC(C)(C)NC(=O)C(=O)NCc1ccccn1 | 14.1 |
| Cc1nnc(NC(=O)CSc2ccc(-c3ccc(Cl)cc3)nn2)s1 | 12.4 |
| COc1ccccc1CNC(=O)CCNC(=O)N1CC(=O)Nc2ccccc21 | 14.3 |
| O=C(O)c1ccccc1C(=O)N(c1ccccc1)c1ccccc1 | -7.87 |
| COCCCN(C(=S)Nc1ccc(C)cc1Cl)C(C)c1ccncc1 (centres unmarked) | 9.65 |
| O=C1C(=O)N(Cc2cccnc2)C(c2cccc([N+](=O)[O-])c2)/C1=C(\O)c1ccc2c(c1)OCCO2 (centres unmarked) | 3.29 |
| Cn1nc(-c2ccccc2)c(CSc2ccccc2)c1Cl | 13.6 |
| O=C(/C(=C/O)N=Nc1ccc(Cl)cc1)c1ccncc1 | 12.2 |
| CC(=O)N1N=C(c2ccc(C)cc2)CC1c1ccc2c(c1)OCO2 (centres unmarked) | -6.77 |
| CC(=O)N1N=C2C3CCN(CC3)C2C1c1ccc(Br)cc1 (centres unmarked) | 6.4 |
| O=C(COc1cccc(Cl)c1)Nc1ccccc1N1CCCCC1 | 4.2 |
| CC(C)(C)c1cc(CCC(=O)NNC(=O)c2ccco2)cc(C(C)(C)C)c1O | 1.37 |
| CCc1nc2nc(C)c(NS(=O)(=O)c3ccc(Cl)s3)c(=O)n2[nH]1 | 13.9 |
| COc1cc(OC)c2c(C)c(Cl)c(=O)oc2c1 | 13.7 |

| SMILES | hERG current change (%, negative = inhibition) at 1uM [%] |
| --- | --- |
| O=C(CSc1nc(-c2ccccc2)cc(=O)[nH]1)Nc1ccccn1 | 4.87 |
| Cc1ccc(S(=O)(=O)N/N=C/c2cccc3nccnc23)cc1 | 13.1 |
| CCN1CCN(C(=O)c2ccc(CNS(=O)(=O)c3cccc(OC)c3)cc2)CC1 | 2.31 |
| O=C(Cc1cccc2ccccc12)Nc1nc2ccccc2[nH]1 | -4.04 |
| Cc1cccc(C(=O)NC2CCCc3ccccc32)c1 (centres unmarked) | 10.9 |
| CCOC(=O)CNC(=O)N1CCc2ccc(NC(=O)c3ccccc3OC)cc2C1 | 10.4 |
| O=C(c1cccc(F)c1)N1CCC(c2nc3ccccc3s2)CC1 | -10.9 |
| COC(=O)COc1ccc2c(c1C)O/C(=C\c1ccco1)C2=O | 7.9 |
| CCOCCc1nnc(NC(=O)CCC2CCCCC2)s1 | 12.2 |
| O=C(/C=C/c1ccc(O)c([N+](=O)[O-])c1)c1ccc2ccccc2c1 | 16.4 |
| COc1ccc(N(Cc2ccccc2)S(=O)(=O)c2cccc(C(=O)NC3=NCCS3)c2)cc1 | 11.3 |
| CC(=O)N1CCC(N(CCCOC(C)C)S(=O)(=O)c2ccc([N+](=O)[O-])cc2)CC1 | 1.46 |
| Cn1nc(-c2ccccc2)c(C(=O)NC(C(=O)O)c2ccccc2)c1Cl (centres unmarked) | 15.2 |
| COC(=O)c1cn(NC(=O)c2cc(OC)c(OC)c(OC)c2)c(=O)c2ccccc12 | 16.2 |
| Cc1cccc(OCc2nnc(SCC(=O)Nc3ccc(C)c(C)c3)o2)c1 | 10 |
| Cc1ccc(SC(C)C(=O)NCC(C)C)cc1 (centres unmarked) | 10.5 |
| CCc1ccc(NC(=O)CSc2nnc(Cc3cccn3C)n2-c2ccc(OC)cc2)cc1 | -1.55 |
| Cc1cc(C)cc(C(=O)OCC(=O)NCC(F)(F)F)c1 | 8.35 |
| Cc1ccsc1/C=N\NC(=O)c1n[nH]c2c1CCC2 | -0.0557 |
| Cc1cccc(-c2nc3c(c(SCC(=O)N4CCOCC4)n2)Cc2c(CO)cnc(C)c2O3)c1 | 1.59 |
| Cn1c(=O)cc(OCC(=O)N2CCN(Cc3ccc4c(c3)OCO4)CC2)c2ccccc21 | -7.64 |
| Cc1cc(NS(=O)(=O)c2ccc(NC(=O)c3ccco3)cc2)no1 | 6.55 |
| O=C(NNC(=O)c1sccc1-n1cccc1)c1cccs1 | 8.55 |

| SMILES | hERG current change (%, negative = inhibition) at 1uM [%] |
| --- | --- |
| O=C(/C=C/c1ccc2c(c1)OCCCO2)c1ccc2ccccc2c1O | -0.813 |
| NC(=O)c1ccccc1OCC(=O)NS(=O)(=O)c1ccc(Cl)cc1 | -3.01 |
| C=CCN(c1ccccc1)S(=O)(=O)c1cccc(C(=O)Nc2cccc(C)n2)c1 | 13.5 |
| Cc1ccccc1Cn1cc(NC(=O)CCCn2nc([N+](=O)[O-])cc2C)cn1 | 0.646 |
| CCC1CCCCN1C(=O)CSc1nnc(-c2cccc(Cl)c2)o1 (centres unmarked) | -9.15 |
| O=C(O)C(=O)O.O=C(c1ccccc1)c1ccc(OCCCCN2CCCCC2)cc1 | -7.28 |
| O=C(N/N=C/c1ccc(-c2ccccc2)o1)c1ccccc1O | 8.54 |
| O=C1C(c2c(O)[nH]c3ccccc23)=Nc2ccccc21 | 11.1 |
| CC1CCCN(C(=O)c2cc(N3C(=O)C4C5CCC(C5)C4C3=O)ccc2Cl)C1 (centres unmarked) | 16.7 |
| C=CCn1c(SCC(=O)c2c(N)n(C)c(=O)n(C)c2=O)nnc1-c1ccncc1 | 9.69 |
| CCOc1c(Cl)cc(CNCc2ccccn2)cc1OC.Cl | -1.38 |
| COc1ccccc1C1CC(c2cccc(NS(C)(=O)=O)c2)=NN1S(=O)(=O)c1ccccc1 (centres unmarked) | 9.64 |
| Cn1c(SCC(=O)NNC(=S)Nc2ccccc2)nnc1-c1ccccc1 | 10.1 |
| COc1ccc(N(CC(=O)NCCSCc2cccc(Cl)c2)S(C)(=O)=O)cc1 | 7.41 |
| O=C(Nc1nnc(S(=O)(=O)N2CCOCC2)s1)c1ccccc1Br | 6.23 |
| CSC(=O)NC(=O)NC(=O)c1ccc([N+](=O)[O-])cc1 | 11.4 |
| COC(=O)C1=C(C)NC(=O)NC1c1ccc(-c2ccccc2Cl)o1 (centres unmarked) | 13.1 |
| CCOc1ccc(OCCCC(=O)NC2=NCCS2)cc1 | 13.6 |
| CCCc1cc(-c2nc(N)ncc2-c2csc(C)n2)c(O)cc1OC | 9.55 |
| COc1ccc(CCNC(=O)c2nnn(-c3cc(C)cc(C)c3)c2N)cc1OC | 5.59 |
